Usually Kd stands for a measure of binding affinity in units of concentration.

Kd data for 1 molecule are collected here from PMC8141534 (2021).

The target of experiment [1] is peptide 16 (His-tagged, 38-mer). Put plainly: ITC.
For experiment [2], the target named is peptide 33 (His-tagged, 38-mer). Put plainly: ITC; polyC.
The target is the same in experiment [3]. The experiment can be described thus: ITC; NusG-CTD + ATP.
The target is the same in experiment [4]. Put plainly: ITC; poly dC34 + ATP. (Isothermal titration calorimetry measures the heat released or taken up as one component is titrated into another.)

Chain of peptide 33 (His-tagged, 38-mer) (P0AG30 whole entry P167L): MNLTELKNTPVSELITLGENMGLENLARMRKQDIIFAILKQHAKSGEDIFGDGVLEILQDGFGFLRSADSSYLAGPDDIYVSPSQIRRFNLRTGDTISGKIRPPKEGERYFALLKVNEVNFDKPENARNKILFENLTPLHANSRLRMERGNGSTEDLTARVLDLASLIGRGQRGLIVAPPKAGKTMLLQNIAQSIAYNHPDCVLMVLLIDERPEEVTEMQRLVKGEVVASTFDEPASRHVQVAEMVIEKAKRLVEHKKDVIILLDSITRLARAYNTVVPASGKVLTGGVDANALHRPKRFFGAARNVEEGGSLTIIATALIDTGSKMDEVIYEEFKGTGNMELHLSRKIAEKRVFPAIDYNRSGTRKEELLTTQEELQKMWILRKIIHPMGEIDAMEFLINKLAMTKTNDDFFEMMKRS
Chain of peptide 16 (His-tagged, 38-mer) (P0AG30 whole entry P167L): as above

B1: P167L Rho (natural protein)
chain: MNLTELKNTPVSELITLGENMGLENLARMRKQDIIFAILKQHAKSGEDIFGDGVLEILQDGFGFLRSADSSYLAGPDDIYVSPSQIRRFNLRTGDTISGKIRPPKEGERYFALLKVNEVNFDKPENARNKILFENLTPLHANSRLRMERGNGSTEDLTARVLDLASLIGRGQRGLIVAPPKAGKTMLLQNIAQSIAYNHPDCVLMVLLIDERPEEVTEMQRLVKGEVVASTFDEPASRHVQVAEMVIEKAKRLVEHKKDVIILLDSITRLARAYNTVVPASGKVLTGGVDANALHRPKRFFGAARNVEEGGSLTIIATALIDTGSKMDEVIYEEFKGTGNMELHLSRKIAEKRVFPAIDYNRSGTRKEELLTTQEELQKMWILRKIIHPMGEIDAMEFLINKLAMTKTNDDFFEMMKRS
For B1, the Kd in experiment [1] is 214 nM; in experiment [2] it was 164 nM; in experiment [3] it was 26.5 nM; in experiment [4] it was 255 nM.
